Assay results from US9399028B2, “Treatment of drug resistant cancer” (ROCKEFELLER UNIVERSITY (THE), priority 2012, dated 2016).

What was measured:
[1] = test system: B16F10 mouse melanoma cells; assay: Subcutaneous B16F10 tumor growth in C57BL/6 mice; format: in vivo; settings: for melanoma primary tumor growth in vivo: orally in chow after tumors reached 5-10 mm3
[2] = test system: subcutaneous MeWo melanoma tumors; assay: Tumor histochemistry (MECA-32, Ki-67, cleaved caspase-3); format: in vivo, human; settings: diet 20 mg/kg for 35 days
[3] = test system: human melanoma cells and endothelial cells; assay: In vitro cell proliferation, viability and serum starvation survival; format: cell-based; settings: MeWo, HT-144, SK-Mel-334.2 cells, 1 μM, 5 days
Method: To determine the effects of miR-199a or miR-1908 over-expression and combinatorial LNA-induced miRNA inhibition on cell proliferation, 2.5×10^4 cells were seeded in triplicate in 6-well plates, and viable cells were counted after 5 days. […] Viable cells were counted after 8, 24, 48, 72, and 120 hours.
The number of viable cells was counter after 8, 16, and 24 hours.
To determine the effects of GW3965, T0901317, and Bexarotene on in vitro cell growth, 2.5×10^4 melanoma cells were seeded in triplicate in 6-well plates and cultured in the presence of DMSO, GW3965, T0901317, or Bexarotene at 1 μM each. After 5 days, the number of viable and dead cells was counted using the trypan blue dye (72-57-1, Sigma-Aldrich), which selectively labels dead cells.

[4] = test system: HUVEC recruited by human melanoma cells; assay: Trans-well endothelial recruitment assay; format: cell-based; settings: MeWo, HT-144, SK-Mel-2, SK-Mel-334.2, 1 μM for 72 hours
Method: 5×10^4 cancer cells were seeded into 24-well plates approximately 24 hours prior to the start of the assay. HUVEC's were grown to 80% confluency and serum starved in EGM-2 media supplemented with 0.2% FBS for 16 hours. HUVEC's were then pulsed with Cell Tracker Red CMTPX dye (C34552, Invitrogen) for 45 minutes. Meanwhile, cancer cells were washed with PBS, 0.5 mL of 0.2% FBS EGM-2 media was added to each well, and a 3.0 μm HTS Fluoroblock insert (351151, BD Falcon, San Jose, Calif.) was placed into each well. 1×10^5 HUVEC's, resuspended in 0.5 mL of starvation media, were seeded into each trans-well insert, and the recruitment assay was allowed to proceed for 16-18 hours at 37° C. […] Upon completion of the assay, the inserts were processed and analyzed as described for the matrigel invasion assay above (See Matrigel Invasion Assay). […]
Subsequently, 5×10^4 cancer cells were seeded into 24-well plates in the presence of each drug or DMSO and allowed to attach for 16 hours prior to starting the assay. […] The basal side of each insert was imaged using an inverted fluorescence microscope (Zeiss Axiovert 40 CFL) at 5× magnification, and the number of DAPI-positive cells was quantified using ImageJ.

O=C(O)Cc1cccc(OCCCN(Cc2cccc(C(F)(F)F)c2Cl)CC(c2ccccc2)c2ccccc2)c1 [GW3965 2, 3-[3-[N-(2-Chloro-3-trifluoromethylbenzyl)-(2,2-diphenylethyl)amino]propyloxy]phenylacetic acid hydrochloride]
suppression of melanoma tumor growth in LXRβ genetically null mice ([1]; diet 20 mg/kg for 7 days): blocked
suppression of tumor growth in mice genetically inactivated for ApoE ([1]; diet 20 mg/kg for 7 days): completely ineffective
tumor growth inhibition in LXRα genetically null mice ([1]; diet 20 mg/kg for 7 days): had no effect
overall survival time, B16F10 ([1]; immunocompetent mice, chow 100 mg/kg after tumor establishment): substantially prolonged
melanoma primary tumor growth in vivo [1]: inhibit
decrease in the number of actively proliferating tumor cells in vivo ([2]; Ki-67): 23%
reduction in the endothelial cell content of tumors ([2]; MECA-32): roughly 2 fold
number of apoptotic cells ([2]; cleaved caspase-3): without a change

CC(CCOc1cccc(CC(=O)O)c1)N(Cc1cccc(C(F)(F)F)c1Cl)CC(c1ccccc1)c1ccccc1 (stereo not drawn) [SB742881 25]
melanoma primary tumor growth in vivo [1]: significantly inhibited

O=S(=O)(c1ccccc1)N(CC(F)(F)F)c1ccc(C(O)(C(F)(F)F)C(F)(F)F)cc1 [T0901317 1]
melanoma primary tumor growth in vivo [1]: inhibit

C=C(c1ccc(C(=O)O)cc1)c1cc2c(cc1C)C(C)(C)CCC2(C)C [bexarotene]
cell proliferation or cell viability rates [3]: did not affect
ability of melanoma cells to recruit endothelial cells [4]: did not significantly affect

Structures can show the parent of a compound that is named as a salt.
